# According to publication PMC4336329 (PLoS ONE, 2015):
# Hit rate of the full screen: of about 310,000 compounds, about 14,000 (4.5%) showed an effect of 50% or more. The effect is printed as a negative number. The list shows a part of the results.
# Target: human ether-à-go-go-related gene (hERG) potassium channel (human, UniProt Q12809)
# Assay: primary screen, population patch clamp on CHO cells stably expressing hERG
# 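Further: peak tail current of the secondary pulse compared with the same well before compound.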
# human ether-à-go-go-related gene (hERG) potassium channel, sequence (Q12809 whole entry, looked up): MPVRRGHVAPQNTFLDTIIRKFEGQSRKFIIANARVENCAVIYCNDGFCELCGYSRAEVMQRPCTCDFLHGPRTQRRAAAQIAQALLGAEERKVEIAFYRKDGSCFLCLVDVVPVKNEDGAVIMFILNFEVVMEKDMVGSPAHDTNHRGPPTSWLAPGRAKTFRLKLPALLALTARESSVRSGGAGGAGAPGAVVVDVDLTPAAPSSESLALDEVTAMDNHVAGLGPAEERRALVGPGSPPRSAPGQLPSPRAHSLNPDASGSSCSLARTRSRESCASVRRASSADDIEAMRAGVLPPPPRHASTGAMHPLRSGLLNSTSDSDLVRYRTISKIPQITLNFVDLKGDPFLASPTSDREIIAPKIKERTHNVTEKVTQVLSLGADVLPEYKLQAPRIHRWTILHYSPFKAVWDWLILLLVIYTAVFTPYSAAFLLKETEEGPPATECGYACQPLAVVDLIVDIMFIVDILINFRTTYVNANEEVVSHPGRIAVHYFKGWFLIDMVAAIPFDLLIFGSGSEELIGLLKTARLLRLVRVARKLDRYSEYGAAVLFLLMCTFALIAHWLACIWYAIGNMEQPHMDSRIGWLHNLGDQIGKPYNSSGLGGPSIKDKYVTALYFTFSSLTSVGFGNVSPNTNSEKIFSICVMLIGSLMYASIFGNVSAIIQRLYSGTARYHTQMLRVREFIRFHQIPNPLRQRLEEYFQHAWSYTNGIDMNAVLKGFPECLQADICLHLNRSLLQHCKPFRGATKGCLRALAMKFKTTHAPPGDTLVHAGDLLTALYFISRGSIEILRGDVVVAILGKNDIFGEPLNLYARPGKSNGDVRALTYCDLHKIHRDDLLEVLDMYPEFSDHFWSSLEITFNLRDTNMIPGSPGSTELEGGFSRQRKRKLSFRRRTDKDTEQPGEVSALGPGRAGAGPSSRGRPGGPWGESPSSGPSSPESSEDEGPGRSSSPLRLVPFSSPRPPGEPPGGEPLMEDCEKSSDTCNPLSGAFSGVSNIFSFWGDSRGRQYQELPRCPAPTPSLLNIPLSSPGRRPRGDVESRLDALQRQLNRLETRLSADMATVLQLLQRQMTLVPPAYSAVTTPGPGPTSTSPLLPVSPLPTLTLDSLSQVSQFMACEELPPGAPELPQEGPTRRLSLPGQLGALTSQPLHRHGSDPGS
row,Compound,"hERG current change (%, negative = inhibition) at 10uM [%]"
1,CC(C)=CC(=O)OCc1cc([N+](=O)[O-])cc2c1OCOC2,8.69
2,O=C(c1ccc(N2CCCCC2)c([N+](=O)[O-])c1)N1CCN(c2ccccn2)CC1,-66.8
3,O=C(/C=C/c1cn(CC(O)CN2CCCCCC2)c2ccccc12)c1cccs1 (stereo not drawn),-75.2
4,COc1ccc(C(=O)N[C@H](C(=O)Nc2nc3ccccc3[nH]2)C(C)C)cc1,22.2
5,O=[N+]([O-])c1ccc(-c2ccc(/C=N/n3cnnc3)o2)c(Br)c1,-12.9
6,COc1ccc(NC(=O)Nc2ccccc2F)cc1,11.5
7,COc1cccc(/C=N/Nc2nc(-c3cccnc3)nc3ccccc23)c1,2
8,COC(=O)c1cc(C(=O)Nc2nnc(C3CC3)s2)cc([N+](=O)[O-])c1,16.7
9,N/C(=N\O)c1ccc(N2CCN(c3ncccc3C(F)(F)F)CC2)nc1,-16.7
10,O=C1NC(=S)NC(=O)C1C1CCCCC1,1.49
11,NS(=O)(=O)c1ccc(NC(=O)c2cccc(Cl)c2)cc1,-2.72
12,COc1cccc(C(=O)Oc2ccc(N3C(=O)CCC3=O)c(C)c2)c1,27.9
13,COc1ccc(CNC(=O)CN(C(=O)c2snc(C(N)=O)c2N)c2ccccc2F)cc1,-8.74
14,COc1cc(NC(=O)CCc2ccccc2)c(C(=O)O)cc1OC,-8.88
15,O=S(=O)(Nc1nc2ccccc2nc1NCC1CCCO1)c1cccs1 (stereo not drawn),0.629
16,Cc1ccc(CNC(=O)CCc2ccc(S(=O)(=O)NCC(C)C)cc2)cc1,-2.4
17,O=C(Cn1cccc1)Nc1ccc(F)cc1F,-10.2
18,CCNc1nc(Oc2ccc(OC)cc2)cc(C(F)(F)F)n1,9.28
19,CC(=O)Nc1ccc(NC(=O)c2ccc(NS(=O)(=O)c3cc(C(C)(C)C)cc(C)c3C)cc2)cc1,-7.41
20,Cc1nc2nc(-c3cccnc3)[nH]n2c(=O)c1C,22.7
21,Cc1[nH]nc2c1C(=O)CC(C)(C)C2,6.13
22,Cc1ccc([N+](=O)[O-])c(C)[n+]1C.[I-],34.3
23,NC(=O)c1ccc(=O)n(Cc2ccc(F)c(F)c2)c1,14.2

row,Compound,"hERG current change (%, negative = inhibition) at 10uM [%]"
1,Cn1c(=O)c2c(nc(NCc3ccccc3)n2CCCc2ccccc2)n(C)c1=O,-22.7
2,O=C(NCc1cccc(C(F)(F)F)c1)N1CCN(S(=O)(=O)c2ccccc2F)CC1,-31.2
3,O=C(Nc1ccc(F)cc1)NC1(C(=O)NCc2cccs2)CCCCC1,1.49
4,COc1ccc(F)cc1C(=O)C1CCCN(C(=O)c2cccc(N(C)C)c2)C1 (stereo not drawn),-12
5,O=C(CCN1C(=O)C2CCCCC2C1=O)NNC(=O)c1cccc(Cl)c1 (stereo not drawn),6.14
6,O=C(CCC1CCCCC1)NCc1cccs1,-4.05
7,O=C(O)C1CCN(c2ccc(Cl)nn2)CC1,-3.83
8,COc1ccc2c(c1)c(=O)oc1cc(OCC(=O)NC3CCCCC3)ccc12,-2.11
9,Cc1noc(C)c1C(=O)OCC(=O)Nc1ccc(C(N)=O)cc1,19.7
10,CCN(C(=O)CC(C)C)c1nnc(Cn2nnc3ccccc32)s1,-14
11,O=C(NC12CC3CC(CC(C3)C1)C2)C1=COCCO1,11.2
12,COc1ccc([N+](=O)[O-])cc1NC(=O)CCN1CCN(CCO)CC1,-9.47
13,O=C1C=C(c2cccc3c2oc2ccccc23)CCC1,-2.35
14,O=C(Cc1ccccc1F)NNC(=O)c1ccncc1,0.139
15,Cc1sc2nc(CSCC(=O)Nc3c(F)cccc3F)[nH]c(=O)c2c1C,7.01
16,Cc1cccc(C(=O)NCCc2n[nH]c(=S)n2C)c1,-3.72
17,COc1ccc(CN2CCC(c3nc4ccc(Cl)cc4[nH]3)CC2)cc1,-76.3
18,CCOC(=O)CSc1nc2sc(C)c(C)c2c(=O)[nH]1,9.45
19,CS(=O)(=O)Nc1cccc(C2=NN(C(=O)CCC(=O)O)C(c3cccs3)C2)c1 (stereo not drawn),26.3
20,CC1CCCC(NC(=O)c2cc(S(=O)(=O)N3CCCCC3)ccc2Cl)C1C (stereo not drawn),-0.241
21,CCOC(=O)NC(O)C(=O)c1ccc(F)cc1 (stereo not drawn),14.8
22,COc1ccc(N=Nc2nc(-c3ccccc3)c(-c3ccccc3)[nH]2)cc1,-6.99
23,Cc1ccc(NC(N)=S)cc1,15

row,Compound,"hERG current change (%, negative = inhibition) at 10uM [%]"
1,CCOc1ccc(-n2cc(-c3ccccc3)c3c(SC(C)C(=O)OC)ncnc32)cc1 (stereo not drawn),28.9
2,Cc1ccc(CNC(=O)C2CCCN(C(=O)Nc3ccc(F)cc3)C2)cc1 (stereo not drawn),1.95
3,O=C1/C(=C/c2cccnc2)Oc2cc(OS(=O)(=O)c3ccc(Cl)cc3)ccc21,-4.17
4,Cc1ccc(NS(=O)(=O)c2ccc3c(c2)oc(=O)n3C)cc1F,9.75
5,Cc1ccccc1Cn1c(CN2CCN(C(=O)c3ccco3)CC2)nc2c1c(=O)n(C)c(=O)n2C,-45
6,C[C@H]1CCC[C@]2(C)C[C@H]3OC(=O)C(CN4CCCCCC4)[C@H]3C=C12 (stereo partly drawn),-6.66
7,Cc1cccc(N(CC(=O)NCc2ccc(F)cc2)C(=O)c2csnn2)c1C,-48
8,CCOC(=O)C(NC(=O)c1ccc(F)cc1)(Nc1sc2c(c1C(N)=O)CCC2)C(F)(F)F (stereo not drawn),3.06
9,COc1ccc(C2N3CC(C)(C)CN23)cc1 (stereo not drawn),15.2
10,Cc1ccc(-c2noc(C3CCCCC3)n2)cc1,16.1
11,CCOC(=O)C1=C(COC(=O)COc2ccc(OCC)cc2)NC(=O)NC1C (stereo not drawn),5.59
12,COc1cc(C)c(CN2CCC(Cc3ccccc3)CC2)cc1C,-45.3
13,COc1ccc(NC(=O)N2CCC3(CC2)OCCO3)cc1,-0.264
14,CS(=O)(=O)N(CC(=O)N1CCC(C(N)=O)CC1)c1ccc(Cl)c(C(F)(F)F)c1,-5.29
15,O=C(NCCN1CCOCC1)c1ccc2c(c1)N(Cc1ccccc1F)C(=O)c1ccccc1S2(=O)=O,12.5
16,Cn1cccc1C(=O)NC(=O)COC(=O)c1ccc(O)cc1,0.666
17,CCC1CCCCN1S(=O)(=O)c1ccc(NC(=O)c2snnc2C)cc1 (stereo not drawn),-0.105
18,Cc1cc(C(=O)OCn2nnc3ccccc3c2=O)c(C)o1,-6.92
19,CN(CC(=O)Nc1ccccc1Cl)C(=O)COC(=O)C1CC1,-2.87
20,CCN(CC)c1ccc(/C=C2/C(=O)c3ccc(C(=O)O)cc3C2=O)cc1,2.24
21,Cc1cc(/C=C(\C#N)C(=O)Nc2ccccc2)c(C)n1-c1cccnc1,8.27
22,CC(C)c1ccc(N(C(=O)CNC(=O)c2ccco2)C(C(=O)NC2CCCC2)c2cccnc2)cc1 (stereo not drawn),-5.02
23,FC(F)(F)c1cccc(N2CCN(C(=S)NC3CCCCC3)CC2)c1,-0.288

row,Compound,"hERG current change (%, negative = inhibition) at 10uM [%]"
1,CSC1=N/C(=C\c2ccccc2F)C(=O)S1,-3.24
2,CC1CN(C2CCN(C(=O)COc3ccccc3)CC2)CC(C)O1 (stereo not drawn),3.57
3,CCCCC1CCC(C(=O)N(CCCC)c2c(N)n(CCCC)c(=O)[nH]c2=O)CC1 (stereo not drawn),-2.89
4,CCn1c2ccccc2c2cc(CC(N)=O)ccc21,5.3
5,C1CN(c2nc3nonc3n3nnnc23)CCO1,6.05
6,COc1ccc(C2=NN(C(=O)C(O)c3ccccc3)C(O)(C(F)(F)F)C2)cc1 (stereo not drawn),-0.328
7,COC(=O)C1CCN(Cc2c(C(=O)N3C[C@@H](C)O[C@@H](C)C3)nc3ccc(Cl)cn23)CC1,21.1
8,COc1c([N+](=O)[O-])c(=O)oc2ccccc12,15.4
9,Cc1cccc(-c2sc(Nc3ccccc3)n[n+]2-c2ccc(F)cc2)c1.[Cl-],21.7
10,Cc1ccc(NC(=O)c2cc(S(=O)(=O)N3CCCCC3)cs2)cc1,8.89
11,Cc1ccc(N(C)C(=O)N2CCN(S(=O)(=O)c3ccc(C)cc3)CC2)cc1,-33.3
12,Cc1ccc(-c2nc3ccc(Cl)cc3c(=O)n2O)cc1,21.9
13,Cc1cc(C(=O)CSc2nnc3c(Cl)cc(Cl)cn23)c(C)n1C,10.3
14,O=c1[nH]nc(Cc2ncc(C(F)(F)F)cc2Cl)c2ccccc12,8.74
15,NC(=O)C1(N2CCCCC2)CCN(C2CC(=O)NC2=O)CC1 (stereo not drawn),-29.5
16,CCN1CCN(c2cc(C)c3cc(NC(=O)c4ccc(C)c(C)c4)ccc3n2)CC1,-43.3
17,CC1CC(C(F)(F)F)n2ncc(C(=O)O)c2N1 (stereo not drawn),11.5
18,Cc1cccc(N2CCN(S(=O)(=O)c3ccc4c(c3)CC(C)N4C(=O)C3CC3)CC2)c1C (stereo not drawn),8.2
19,CCOc1cc2c(cc1OCC)-n1cccc1C(c1ccc(OC)cc1)NC2.Cl (stereo not drawn),-48.1
20,COC(=O)c1cccc(NC(=O)CCc2cc(OC)c(OC)c(OC)c2)c1,-0.185
21,O=C(Nc1cc(C(=O)N2CCOCC2)cc(C(=O)N2CCOCC2)c1)c1cc(F)c(F)cc1Cl,18
